The supplement of paper PMC10369915
Some of the results follow. Cut-off read from the data, not from the text of the source: active = 3.2 or more and inactive = the rest. Most of these values are background signal.

B1: DLG1_Y349 (peptide)
chain: GDNSIYVTKII
B2: DLG1_Y349_S347N (peptide)
chain: GDNNIYVTKII
B3: DLG1_Y895_P899L (peptide)
chain: EQSGSYIWVLA
B4: DLK1_Y262_S260N (peptide)
chain: RLPNGYGLAYR
B5: DNAH5_Y596 (peptide)
chain: LILENYGADID
B6: DNAH5_Y596_L591R (peptide)
chain: RILENYGADID
B7: DNAI2_Y5_YF (peptide)
chain: GMEIVYVFVKK
B8: DNAI2_Y7_E2K (peptide)
chain: KIVYVYVKKRS
B9: DNAJC13_Y1131_N1135S (peptide)
chain: FFIMMYTGSSV
B10: DNM2_Y463_R465W (peptide)
chain: RIVTTYIWERE
B11: DNM2_Y563_E560K (peptide)
chain: EKKKKYMLPLD
B12: DNM2_Y626_L621P (peptide)
chain: PRAGVYPEKDQ
B13: DNM2_Y626_P627R (peptide)
chain: LRAGVYREKDQ
B14: DNMT3B_Y404 (peptide)
chain: LKTNCYNNGKD
B15: DNMT3B_Y404_C403W (peptide)
chain: LKTNWYNNGKD
B16: DNMT3B_Y815_H814R (peptide)
chain: GFPVRYTDVSN
B17: DNTTIP2_Y427_A430V (peptide)
chain: CDTKLYTSVPN
B18: DOCK2_Y1555 (peptide)
chain: FFTEEYVRDHP
B19: DOCK3_Y548_C550S_YF (peptide)
chain: HELFVYKSDEN

target: SHP2 C-SH2 domain E139D; assay: enrichment score (SH2-bound / input frequency) (ratio); bacterial display of known human phosphotyrosine sites (pTyr-Var adds point mutants) read by sequencing; higher = stronger binding; tyrosines were phosphorylated by kinases first; settings: peptide library: pTyr-Var
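Note: displayed peptides selected on beads carrying the immobilized SH2 domain, with library peptides lacking any tyrosine serving as negative controls.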

Enrichment score, inactive:
B1 0.47
B2 0.771
B3 0.655
B4 0.645
B5 0.7
B6 1.19
B7 2.49
B8 0.561
B9 0.736
B10 1.86
B11 0.597
B12 0.881
B13 0.719
B14 0.864
B15 1.1
B16 0.792
B17 0.798
B18 1.16
B19 1.31

target: SHP2 C-SH2 domain wild-type; assay: as above; settings: peptide library: pTyr-Var

Enrichment score, inactive:
B1 0.534
B2 0.74
B3 0.579
B4 0.596
B5 0.541
B6 0.826
B7 2.03
B8 0.513
B9 1.14
B10 1.73
B11 0.878
B12 0.799
B13 0.42
B14 1.26
B15 0.884
B16 0.737
B17 0.723
B18 0.99
B19 0.894

target: SHP2 N-SH2 domain L43F; assay: as above; settings: peptide library: pTyr-Var

Enrichment score, inactive:
B1 0.568
B2 0.69
B3 0.646
B4 0.636
B5 0.967
B6 0.994
B7 1.8
B8 0.598
B9 1.1
B10 1.26
B11 0.755
B12 0.769
B13 1.25
B14 1.05
B15 0.728
B16 0.952
B17 0.837
B18 0.847
B19 1.38

target: SHP2 N-SH2 domain T42A; assay: as above; settings: peptide library: pTyr-Var

Enrichment score, inactive:
B1 0.467
B2 0.58
B3 0.597
B4 0.615
B5 0.575
B6 0.653
B7 1.37
B8 0.453
B9 0.909
B10 1.68
B11 0.638
B12 0.914
B13 0.345
B14 0.749
B15 0.719
B16 3.16
B17 0.575
B18 1.26
B19 0.796

target: SHP2 N-SH2 domain T52S; assay: as above; settings: peptide library: pTyr-Var

Enrichment score, inactive:
B1 0.513
B2 0.574
B3 0.558
B4 0.689
B5 0.743
B6 0.85
B7 1.99
B8 0.482
B9 1.05
B10 1.41
B11 0.677
B12 0.491
B13 0.748
B14 1.14
B15 0.868
B16 0.963
B17 0.795
B18 1.02
B19 1.14

target: SHP2 N-SH2 domain wild-type; assay: as above; settings: peptide library: pTyr-Var

Enrichment score, inactive:
B1 0.576
B2 0.966
B3 0.664
B4 0.841
B5 0.75
B6 1.32
B7 1.85
B8 0.603
B9 1.16
B10 1.47
B11 0.808
B12 0.832
B13 0.421
B14 1.11
B15 1.38
B16 0.75
B17 0.895
B18 1.32
B19 1.12
